Assay results published in PubChem BioAssay AID1347120 (National Center for Advancing Translational Sciences (NCATS), 2019).
The campaign covered roughly 390,000 compounds. About 930 (0.24%) were called active. The shares of active, inactive and inconclusive entries below differ from those in the screen. Calls come from the whole dose curve; as a rule, active = well fitted activation curve with a large enough effect; inconclusive = small, poorly fitted or top-dose-only effect; inactive = no such curve, though single readings can be large or run the other way. Potencies of inconclusive entries are doubtful fits and often do not repeat.

test: qHTS for Suppressors of FUS Proteinopathy: Primary screen using FUS-linked yeast assay; note: nearly all actives have a fitted effect of over 55% in size;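 for growth rescue (activation): plate controls were DMSO vehicle for no effect and reference control for full effect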; conditions: S. cerevisiae FUS-expressing, OD600, 24 h; Potency: growth rescue; growth rescue (activation): at 76.6 µM (top of the series)
How it was run: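 S. cerevisiae expressing FUS from galactose induction served as the toxicity model. Growth after 24hr at 30C, read as absorbance at 600 nm, indicates suppression of toxicity; compounds dosed at several concentrations.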
Potency is the fitted concentration of half-maximal effect; tags give direction and shape of the fitted curve.

SMILES | Potency | growth rescue (activation)
CCc1nc2c(OCc3cc(Cl)cc(Cl)c3)cccn2c1N(C)C(=O)c1ccc(C)cc1 | inconclusive: 31.6 µM [activator, single point] | 
O=C(C[C@H]1C[C@H](C(=O)N2CCOCC2)[C@@]2(CCC3CCCC3)c3[nH]c4cc(-c5ccco5)ccc4c3CCN2C1=O)NCCCn1ccnc1 | inconclusive: 31.6 µM [activator, single point] | 
COc1ccc(-n2c(Cc3cccn3C)nnc2SCC(=O)Nc2ccc3c(c2)OCCO3)cc1 | inconclusive: 28.2 µM [activator, single point] | 
CCOC(=O)[C@H]1[C@H]2COc3ccc(Cl)cc3[C@@H]2N2C(=O)CN(Cc3ccc(OC)cc3)C(=O)[C@@]12C | inconclusive: 31.6 µM [activator, single point] | 
Cc1ccc(C(=O)/C=C/c2cn(CC(O)CN3CCc4ccccc43)c3ccccc23)cc1 (centres undefined) | inconclusive: 31.6 µM [activator, partial curve, poor fit] | 
O=C(CN1C(=O)COc2ccc(S(=O)(=O)N3CCOCC3)cc21)N1CCN(c2cccc(C(F)(F)F)c2)CC1 | inactive | 
CCc1nc2sc3c(N4CCC(C)CC4)ncnc3c2c2c1CCCC2 | inactive | 
CC(C)C[C@@H](COCc1cccc(Cl)c1)N1CCN(C(=O)c2ccc(C(F)(F)F)cc2)CCC1=O | inconclusive: 20 µM [activator, single point] | 
Cc1cccc(C(=O)NCCCNC(=O)c2ccccn2)c1 | inactive | 
CCCCn1c(N)c(N(CC)C(=O)c2ccc(-c3ccc(Cl)cc3)o2)c(=O)[nH]c1=O | inactive | 
COC(=O)c1ccc(C(=O)OC)c(NC(=S)N2CCOCC2)c1 | inactive | 
Cc1cc(Br)cn2c(Cc3ccccc3)c(-c3ccco3)nc12 | inactive | 
COc1cccc(N2C(=O)C3CCCN3C2=S)c1 (centres undefined) |  | inconclusive: -79% [activator]
N#CCC(=O)N/N=C/c1cc(Br)ccc1OCc1cccc2ccccc12 | inconclusive: 39.8 µM [activator, single point] | 
O=S(=O)(Nc1cccc(-c2ccc(N3CCCCCC3)nn2)c1)c1ccccc1F | inconclusive: 44.7 µM [activator, partial curve, poor fit] | 
CC1(C)CC(=O)C(C=NCCCN2CCCC2=O)=C(O)C1 | inactive | 
CCN(CC(=O)Nc1ccccc1C(F)(F)F)C(=O)c1ccc(-n2nc(C)c(CCC(=O)OC)c2C)cc1 | inconclusive: 12.6 µM [activator, partial curve] | 
C[C@H](CO)N1C[C@H](C)[C@@H](CN(C)C(=O)Nc2ccc(C(F)(F)F)cc2)Oc2ccc(NS(=O)(=O)c3ccccc3)cc2C1=O | inconclusive: 39.8 µM [activator, single point] | 
O=C(CCC(=O)N1CCN(c2ccc(O)cc2)CC1)c1cccs1 | inactive | 
C[C@H]1[C@@H](C(=O)N2CCCC2)Cc2nc3ccccc3nc2C[C@@H]1c1ccccc1 | inactive | 
O=C(NCCc1ccc(F)cc1)c1ccc(Sc2ccccc2Cl)c([N+](=O)[O-])c1 | inactive | 
COc1ccc(-n2nnnc2C2CCN(S(=O)(=O)c3cccc(Cl)c3C)CC2)cc1 | inactive | 

SMILES | Potency | growth rescue (activation)
CC(C)C1C(=O)N(Cc2cn(CCC3OCCO3)nn2)CCS(=O)(=O)N1Cc1ccc(-c2ccc(Cl)c(Cl)c2)cc1 (centres undefined) | inconclusive: 15.8 µM [activator, partial curve, poor fit] | 
CCCOC(=O)N[C@@H]1C(=O)N2C(C(=O)OCCC)=C(C)CS[C@H]12 |  | inconclusive: -56.4% [activator]
CCOC(=O)Cc1csc(NC(=O)CC)n1 | inactive | 
CCCCOCCCNC(=O)C[C@H]1C[C@@]2(C(=O)OC)C(=C[C@H](C(C)(C)C)O[C@@H]2C)N(Cc2cccc3ccccc23)C1=O | inconclusive: 8.91 µM [activator, partial curve] | 
CC(C)CC(COCc1ccc(Cl)cc1)N1CCN(C(=O)c2ccc(C(F)(F)F)cc2)CCC1=O (centres undefined) | inconclusive: 12.6 µM [activator, partial curve] | 
O=C(Cc1ccccc1)NC1CC(=O)N(c2ccc3c(c2)OCCO3)C1 (centres undefined) | inactive | 
COc1ccc(-n2cnnc2SCc2cnc(-c3ccccc3)s2)cc1 | inactive | 
C#CCN(C[C@@H]1[C@@H](OC(=O)NCc2ccco2)[C@@H](OC(=O)NCc2ccco2)CN(C(=O)OC(C)C)N1C(=O)OC(C)C)S(=O)(=O)c1ccc(C)cc1 | inconclusive: 28.2 µM [activator, partial curve, poor fit] | 
CCc1nc2c(OCCC3CCCCC3)cccn2c1N(C)C(=O)c1ccc(C)cc1 | inactive | 
C=CCC1=C/C(=C\c2c(N)n3nc(CC(=O)N4CCOCC4)sc3nc2=O)C=C(OC)C1=O | inconclusive: 15.8 µM [activator, partial curve, poor fit] | 
CN(Cc1ccco1)C(=O)c1cccc2c1C(=O)N(Cc1cccnc1)C2 | inactive | 
CC(=O)c1cccc(-c2cnc3c(NC=O)cc(-c4ccccc4)cn23)c1 | inconclusive: 28.2 µM [activator, single point] | 
N#C/C(=C\c1ccccc1O)C(=O)Nc1ccccn1 | inactive | 
COc1ccccc1N1CCN(C(=O)c2ccc3c(c2)N(Cc2ccccc2)C(=O)c2ccccc2S3(=O)=O)CC1 | inconclusive: 15.8 µM [activator, partial curve, poor fit] | 
O=C1C=C(c2ccc3c(c2)OCO3)C[C@@H](c2ccc(F)cc2)C1 | inactive | 
C/C=C(\C)C(=O)OC1CC(C)(C)C[C@H]2C3=CC[C@@H]4[C@@]5(C)CCC(O[C@@H]6O[C@@H](C(=O)O)[C@@H](O)C(O[C@@H]7OC[C@H](O)[C@@H](O)[C@@H]7O[C@@H]7OC(CO)C(O)[C@@H](O)[C@@H]7O)C6O[C@@H]6OC(CO)C(O)C(O)C6O)[C@@](C)(CO)[C@@H]5CC[C@]4(C)[C@]3(C)CC(O)[C@@]12CO (some centres undefined) | inconclusive: 25.1 µM [activator, single point] | 
O=C(Nc1nc2ccccc2[nH]1)NC1CCCCC1 | inactive | 
COc1ccc(C)cc1N(CC(=O)N1CCC(C)CC1)S(=O)(=O)c1ccc(C)cc1 | inconclusive: 50.1 µM [activator, single point] | 
O=C(CCCn1c(=O)c2sccc2n(Cc2c(F)cccc2Cl)c1=O)NCc1ccccc1 | inactive | 
COc1ccc2sc(-c3ccccc3OC)c(-c3ccc(O)cc3)c2c1 | inconclusive: 50.1 µM [activator, single point] | 
C[C@@H]1CN([C@H](C)CO)C(=O)c2c(c3ccccc3n2C)-c2ccccc2CO[C@H]1CN(C)C(=O)Nc1ccccc1 | inconclusive: 15.8 µM [activator, partial curve, poor fit] | 
CC(=O)c1ccc(S(=O)(=O)Nc2ccc(C(=O)NCC(c3ccccc3)N(C)C)cc2)cc1 (centres undefined) | inconclusive: 50.1 µM [activator, single point] | 

SMILES | Potency | growth rescue (activation)
CCOC(=O)C1=CC[C@H]2c3c(c4ccccc4n3C)C(=O)C1N2S(=O)(=O)c1ccc(C)cc1 | inconclusive: 31.6 µM [activator, single point] | 
COc1ccc(NS(=O)(=O)c2ccc(SC)cc2)cc1 | active: 10 µM | 
CCOC(=O)c1c(C)[nH]c(C)c1S(=O)(=O)N1CCCC(C(=O)N2CCN(c3ccc(Cl)cc3)CC2)C1 (centres undefined) | inconclusive: 31.6 µM [activator, single point] | 
COC(=O)C1=C(C(=O)OC)[C@@H]2Nc3ccccc3[C@@]23C[C@@H](C(=O)OC)N(C(=O)c2cc(C)oc2C)C3=N1 | inconclusive: 22.4 µM [activator, single point] | 
CCOc1ccccc1CNS(=O)(=O)c1cnc(N)nc1 | inactive | 
CCOC(=O)c1cccc(NC(=O)Cc2ccc(NC(=O)N3CCCCc4ccccc43)cc2)c1 | inactive | 
C=CCSc1ccccc1C(=O)Nc1ncn[nH]1 | inactive | 
CC1(C)CC(c2csc(N)n2)CCO1 (centres undefined) | inactive | 
CCc1ccc(NC(=O)CSc2nc(=O)n(Cc3cccnc3)c3c2CCC3)cc1 | inactive | 
C=C(C)COc1ccc(-c2n[nH]c(C)c2-c2ccc(OC)cc2)c(O)c1 | inconclusive: 14.1 µM [activator, partial curve] | 
COc1ccc(NC(=O)Cn2c(=O)n(CC(=O)NCc3ccco3)c(=O)c3ccccc32)cc1 | inconclusive: 56.2 µM [activator, partial curve, poor fit] | 
CCc1ccccc1NC(=O)CSc1nc2c(oc3ccccc32)c(=O)n1-c1ccccc1 | inactive | 
CCSc1nc2sc3c(c2c(=O)n1CC)CCC3 | inconclusive: 3.55 µM [activator, full curve, poor fit] | 
O=C(NCc1ccccc1Cl)C(=O)NCC(c1ccco1)S(=O)(=O)c1cccs1 (centres undefined) | inactive | 
O=C(CCc1ccccc1)N[C@H]1[C@@H](OC(=O)c2cnccn2)CCC[C@@]12C(=O)N(Cc1ccccc1)c1ccccc12 | inconclusive: 28.2 µM [activator, partial curve, poor fit] | 
COc1ccc(Cn2c(=O)c3oc4ccccc4c3n(CC(=O)Nc3cc(C)cc(C)c3)c2=O)cc1 | inactive | 
CCSc1ccc([C@@H]2[C@@H]3C(=O)N(CC)C(=O)[C@@H]3[C@]3(C(=O)OC)CCCCN23)cc1 | inactive | 
Cc1ccc(C)c(N2CCN(C(=O)C(C)n3nc(C)c4sc5ccccc5c4c3=O)CC2)c1 (centres undefined) | inactive | 
C=CCNC(=O)NCC1CCN(Cc2ccc(OC)cc2)CC1 | inactive | 
COC(=O)c1ccc(NC(=O)N2CCc3c([nH]c4ccccc34)C2c2ccc(C)cc2)cc1 (centres undefined) | inconclusive: 11.2 µM [activator, partial curve] | 
